Assay results published in PubChem BioAssay AID504832 (National Center for Advancing Translational Sciences (NCATS), 2011).
The campaign covered roughly 310,000 compounds. About 18,000 (5.8%) were called active. Inconclusive results, whose numbers are uncertain, are shown with a selection of clear calls. The call rests on the fitted dose curve; in most records, active means well fitted inhibition curve with a large enough effect; inconclusive means small, poorly fitted or top-dose-only effect, or another doubt; inactive means no such curve, though single readings can be large or run the other way. Potencies of inconclusive entries are left out as doubtful fits.

experiment: Primary qHTS for delayed death inhibitors of the malarial parasite plastid, 48 hour incubation; conditions: P. falciparum luciferase growth in erythrocytes; series mostly up to 28.7 µM; activity change, negative = inhibition: at the top concentration
Outline: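 First compound was added to culture medium, then infected red cells at 0.1% parasitemia and 2% hematocrit (final). After incubation at 37 C under 5% CO2, luciferase detection reagent was dispensed and light output recorded.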
On the % scale 0 is the no-effect control and ±100 the full control effect; potency means the concentration at half of the fitted maximal effect; tags describe the fitted curve by direction and shape.

| Compound | Potency | activity change, negative = inhibition |
| --- | --- | --- |
| COc1ccc2[nH]c(C)c(CCNC(=S)Nc3ccc(C)cc3)c2c1 | inconclusive [inhibitor, single point] | – |
| CC[N+](CC)(CC)CCCCOc1ccc2c(c1)C(=O)c1cc(OCCCC[N+](CC)(CC)CC)ccc1-2 | active: 0.0657 µM | – |
| Cc1ccc(/C=C2/NC(=O)N(Cc3ccccc3)C2=O)s1 | active: 10.4 µM | – |
| O=C(NNC(=O)c1ccccc1F)c1ccc2[nH]c(=O)c(=O)[nH]c2c1 | inconclusive [inhibitor, full curve, poor fit] | – |
| Cc1ccc(-c2cc(C(=O)NN)n[nH]2)o1 | inconclusive [inhibitor, single point] | – |
| CC1CCCN(C(=O)C(=O)c2cn(CC(=O)N3CCCCCC3)c3ccccc23)C1 (stereo unspecified) | inconclusive [inhibitor, partial curve, poor fit] | – |
| CSc1ccc(CN(C)C(=O)C(Cc2ccccc2)NC(=O)c2ccccc2)cc1 (stereo unspecified) | – | inactive: -11% |
| CC(Oc1ccccc1)C(=O)N1CCN(c2ccc(N3CCCCCC3)nn2)CC1 (stereo unspecified) | inconclusive [inhibitor, partial curve, poor fit] | – |
| CCc1ccccc1N(CC(=O)NC(C)(C)C)C(=O)CCC(=O)Nc1ccccn1 | – | inactive: -8.41% |
| CCOC(=O)c1ccc(-c2c(-c3ccccc3OC)sc3cc4c(cc23)OCO4)cc1F | active: 1.85 µM | – |
| Cc1cc(SCC(=O)c2ccc(O)c(O)c2)n2nc(C)c(-c3ccccc3)c2n1 | inconclusive [inhibitor, single point] | – |
| COc1ccc(OC)c(CNc2nc3ccccc3n2CCN2CCCCC2)c1 | inconclusive [inhibitor, partial curve] | – |
| CCN(c1ccccc1)S(=O)(=O)c1cc(C(=O)NCc2ccco2)ccc1C | active: 11.7 µM | – |
| CC(=O)Nc1ccc(C(=O)Nc2ccc(S(=O)(=O)NCC3CCCO3)cc2)cc1 (stereo unspecified) | active: 13.1 µM | – |
| CCSc1nc(C)nc2sc(C)c(C)c12 | – | inactive: -27.1% |
| COc1cccc(-c2nn(-c3ccccc3)cc2/C=C(\C#N)C(=O)NCCCn2ccnc2)c1 | inconclusive [inhibitor, single point] | – |
| CC(=O)Nc1ccc(Nc2cc(C)nc3c(-c4ccc(Cl)cc4)c(C)nn23)cc1 | inconclusive [inhibitor, partial curve, poor fit] | – |
| c1ccc(-c2ncnc3cc4n(c23)CCC4)cc1 | – | inactive: -19.4% |
| Cc1ccc(NC(=O)NCc2c(C)nn(C)c2C)cc1Cl | – | inactive: 225% |
| COC(=O)[C@H](CC(C)C)NC(=O)NC1CCCCC1C (stereo partly specified) | – | inactive: 5.94% |
| Cc1nc(SCC(=O)NCC2COc3ccccc3O2)c2c(C)c(C)sc2n1 (stereo unspecified) | – | inactive: 5.38% |
| Cc1ccc(/C=C/c2nnc(-c3ccc(C)cc3)o2)cc1 | inconclusive [inhibitor, full curve, poor fit] | – |
| CC(C(=O)NC1CCCC1)N1C(=O)c2cccc3cccc1c23 (stereo unspecified) | inconclusive [inhibitor, single point] | – |
| Cc1ccc(C(=O)N2CCN(c3ccc(NC(=O)c4cccs4)cc3)CC2)cc1 | active: 10.4 µM | – |

| Compound | Potency | activity change, negative = inhibition |
| --- | --- | --- |
| CC(CN1CCOCC1)OC(=O)c1ccccc1Cl (stereo unspecified) | – | inactive: 7.82% |
| Cn1c(/C=C/c2ccc(Br)cc2)c([N+](=O)[O-])c(=O)n(C)c1=O | active: 9.28 µM | – |
| CCc1ccc(NC(=O)CNC(=O)c2nn(-c3ccc(OC)cc3)c(=O)c3ccccc23)cc1 | inconclusive [inhibitor, partial curve] | – |
| Cc1ccc(C)n1-c1nn(S(=O)(=O)c2ccccc2)c2cccc(F)c12 | inconclusive [inhibitor, partial curve] | – |
| CCCCCCCCCn1c2c(c(=N)c3c1CCC3)CCCC2 | inconclusive [inhibitor, full curve, poor fit] | – |
| CS(=O)(=O)N(CCc1ccccc1)CC(=O)N1CCN(Cc2ccccc2)CC1 | inconclusive [inhibitor, full curve, poor fit] | – |
| COc1ccc(C(=O)N2CCCN(C)CC2)c(OC)c1 | – | inactive: -12.5% |
| COC(=O)COc1ccc(S(=O)(=O)NCc2ccco2)cc1Cl | – | inactive: 16% |
| CCOC(=O)C1CCCN(c2c(NCCCN(CC)c3ccccc3)c(=O)c2=O)C1 (stereo unspecified) | inconclusive [inhibitor, single point] | – |
| CCOc1ccc(C(=O)C(C)OC(=O)C2CCN(c3ccc(C(F)(F)F)cn3)CC2)cc1 (stereo unspecified) | inconclusive [inhibitor, single point] | – |
| CC1CCCCC1NC(=O)COC(=O)c1c2c(nc3ccccc13)/C(=C/c1ccco1)CC2 (stereo unspecified) | – | inactive: -44.8% |
| COc1ccc(-n2c(=O)[nH]c3cc(C(=O)NCCc4ccc(OC)c(OC)c4)ccc3c2=O)c(OC)c1 | inconclusive [inhibitor, single point] | – |
| COc1ccc(CCN(C(=O)C(F)(F)F)C(C(=O)NC2CCCC2)c2cccs2)cc1 (stereo unspecified) | inconclusive [inhibitor, partial curve] | – |
| COc1ccc(-c2nc(-c3cccc(C)c3)nc(N3CCN(C)CC3)c2C#N)cc1 | inconclusive [inhibitor, full curve, poor fit] | – |
| COCCN1CCN(C(=O)C2CCC(=O)N(CCc3cccc(F)c3)C2)CC1 (stereo unspecified) | – | inactive: 27.1% |
| CCSc1nnc(NC(=O)[C@H](C)NC(=O)c2ccccc2Cl)s1 | – | inactive: 1.15% |
| CCOC(=O)CSc1nnc(-c2c[nH]c3ccccc23)o1 | inconclusive [inhibitor, full curve, poor fit] | – |
| COc1ccccc1/C=N/NC(=O)CCn1cnc2ccccc21 | – | inactive: 0.79% |
| O=C(CCc1ccc(S(=O)(=O)N2CCOCC2)cc1)Nc1ccc(N2CCOCC2)cc1 | inconclusive [inhibitor, single point] | – |
| CCCC(C)C(=O)Nc1nc(C)c(-c2csc(Nc3ccccc3OC)n2)s1 (stereo unspecified) | inconclusive [inhibitor, partial curve, poor fit] | – |
| FC(F)(F)c1nnc2ccc(NCc3cccnc3)nn12 | inconclusive [inhibitor, single point] | – |
| Cn1nnc(NC(=O)c2cccc(OCc3ccccc3)c2)n1 | inconclusive [inhibitor, single point] | – |
| Cc1c(S(=O)(=O)N2CCCCC2)c(=O)n(C)c(=O)n1C | – | inactive: 5.73% |
| O=C(COn1nnc2ccc(S(=O)(=O)N3CCOCC3)cc21)NCCc1ccccc1 | inconclusive [inhibitor, single point] | – |

| Compound | Potency | activity change, negative = inhibition |
| --- | --- | --- |
| CN(CC(=O)O)S(=O)(=O)c1ccc2oc3ccccc3c2c1 | – | inactive: 1.99% |
| CC(C)(C)C(=O)NC1CC2CCCC(C1)N2C(=O)Nc1cccc(Cl)c1 (stereo unspecified) | – | inactive: -45% |
| NC(=O)c1cc([N+](=O)[O-])ccc1NCc1cccc2ccccc12 | inconclusive [inhibitor, partial curve] | – |
| COCCCNC(=O)CNC(=S)N(Cc1ccccc1)Cc1cccnc1 | – | inactive: 35.6% |
| Cc1onc(-c2ccccc2)c1C(=O)Nc1ccc(-c2nnc3n2CCCCC3)cc1 | inconclusive [inhibitor, single point] | – |
| O=C(Cn1cnc2c(nnn2Cc2ccc(F)cc2)c1=O)NCc1ccccc1 | active: 9.28 µM | – |
| Cc1ccc(Cl)cc1N1C(=O)CC(Sc2ncccn2)C1=O (stereo unspecified) | – | inactive: -7.92% |
| CC1CCCCC1NC(=O)c1ccc(S(=O)(=O)NCc2ccco2)cc1 (stereo unspecified) | inconclusive [inhibitor, single point] | – |
| CCOc1cc(/C=C2\C(=O)ON=C2c2ccccc2)cc(Br)c1O | – | inactive: 15.6% [at 0.00184 µM] |
| O=C(NCc1nnnn1-c1ccc(F)c(F)c1)c1ccc2c(c1)OCO2 | – | inactive: 9.69% |
| COc1ccc(-c2csc3ncnc(Oc4cccc5ccc(C)nc45)c23)cc1 | inconclusive [inhibitor, single point] | – |
| O=S(=O)(Cc1ccccc1)N(O)c1ccccc1 | inconclusive [inhibitor, full curve, poor fit] | – |
| Cc1cccc(Nc2nc(N3CCOCC3)nc(N3CCOCC3)n2)c1 | inconclusive [inhibitor, single point] | – |
| COc1ccc(NC(=O)CN(C)C(=O)CSCc2ccc(C)cc2)cc1 | inconclusive [inhibitor, single point] | – |
| Cc1cc2oc(=O)cc(CN3CCCCC3)c2cc1C(C)C | active: 7.38 µM | – |
| COc1cccc(N2CCN(C(=O)c3cc4cc(Cl)ccc4[nH]3)CC2)c1 | inconclusive [inhibitor, single point] | – |
| CC[C@H](C)[C@H](NC(N)=O)C(=O)NCCc1ccc(Cl)cc1 | inconclusive [inhibitor, single point] | – |
| COc1ccc(N=C2SC(C(=O)N3CCN(c4ccc([N+](=O)[O-])cc4)CC3)CC(=O)N2C)cc1 (stereo unspecified) | active: 14.7 µM | – |
| Fc1ccccc1OCCCCCN1CCCC1 | inconclusive [inhibitor, partial curve, poor fit] | – |
| Cc1cccc(C(=O)N2CCNC(=O)C2CC(=O)Nc2cccc(Cl)c2)c1 (stereo unspecified) | – | inactive: 1.46% |
| CCOC(=O)C1CCCn2c1nc1sc3c(c1c2=O)CCCC3 (stereo unspecified) | inconclusive [inhibitor, single point] | – |
| CCC(C)c1ccc(OCC(=O)Nc2ccc3[nH]c(=O)[nH]c3c2)cc1 (stereo unspecified) | inconclusive [inhibitor, partial curve, poor fit] | – |
| Cc1[nH]nc(-c2ccc(OCc3cnn(-c4ccccc4)c3)c(C)c2O)c1Oc1ccccc1 | inconclusive [inhibitor, partial curve, poor fit] | – |
